Source: PubChem BioAssay AID2100 (National Center for Advancing Translational Sciences (NCATS), 2009)
Among all 300,000 compounds or so, about 1,200 (0.4%) were called active. Inconclusive results, whose numbers are uncertain, are shown with a selection of clear calls. Calls follow the shape of the dose curve; as a rule, active = well fitted inhibition curve with a large enough effect; inconclusive = small, poorly fitted or top-dose-only effect, or another doubt; inactive = no such curve, though single readings can be large or run the other way. A potency beside an inconclusive call is a rough fit, not a confirmed value.

These compounds were tested against Lysosomal alpha-glucosidase (Homo sapiens) (UniProt P10253) (assay: qHTS Assay for Inhibitors and Activators of Human alpha-Glucosidase Cleavage of Glycogen). Conditions: recombinant GAA, glycogen substrate, Amplex Red glucose oxidase fluorescence; activity change, negative = inhibition: at 76.4 µM (top of the series) unless noted.
Method in brief: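 qHTS, 1536-well; enzyme 4 nM final; cpd up to 77 uM; substrate bovine liver glycogen 30 ug; 50 mM citrate/phosphate pH 5.0, 0.01% Tween-20; 37 C, 40 min; Amplex Red detection 45 min RT; Hill fit → AC50.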
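For activity change, negative = inhibition in this document: 0% = full enzyme reaction and -100% = no-enzyme basal signal.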
Potency is read from the fitted curve at half-maximal effect.

Row | SMILES | Potency | activity change, negative = inhibition
1 | O=C1CC(c2ccco2)CC2=C1C(c1ccccc1)n1nc(C(F)(F)F)nc1N2 (stereo not given) | inactive | 
2 | Cc1ccn2c(C(=O)NN=C3CCCCCCC3)c(C)nc2c1 | active: 39.8 µM | 
3 | CCOc1cc(C2NC(=O)N(C)C(C)=C2C(=O)OC)cc(Br)c1O (stereo not given) | inconclusive: 14.1 µM [inhibitor, partial curve] | 
4 | C=CCOc1ccc(C2NC(=S)NC(c3ccccc3)=C2C(C)=O)cc1OC (stereo not given) | inconclusive: 56.2 µM [inhibitor, single point] | 
5 | CCNc1nc(C(=O)O)nc(N2CCOCC2)n1 |  | inconclusive: 33.5% [activator]
6 | C/C(=N\NC(=O)c1ccc(O)cc1)c1ccc2c(c1)Nc1ccccc1S2 | inconclusive: 31.4 µM [inhibitor, single point] | 
7 | COc1cc(/C=C/CN2CCC(Oc3ccc(C(=O)N4CCCC4)cc3)CC2)ccc1O | inconclusive: 3.55 µM [inhibitor, full curve] | 
8 | COCC(=O)N(Cc1nc2sc(C)c(C)c2c(=O)[nH]1)C1CCCCC1 | inconclusive: 11.2 µM [inhibitor, single point] | 
9 | CCN(CC)CCCNC(=O)c1nn(-c2ccc(OC)c(Cl)c2)c(=O)c2c1c1ccccc1n2C | inactive | 
10 | COc1ccc(N/C=C2\CCOC2=O)cc1 | inconclusive: 20 µM [inhibitor, partial curve] | 
11 | Cc1ccc(CNC(=O)Cn2c(=O)n(-c3ccc(C)c(F)c3)c(=O)c3sc4ccccc4c32)cc1 | inactive | 
12 | CCOC(=O)/C(=N/Nc1ccc(OC)cc1)N1CCCc2ccccc21 | inconclusive: 19.8 µM [inhibitor, single point] | 
13 | CCCNC(=O)Nc1cc(OCC)c(N2CCOCC2)cc1OCC | inconclusive: 11.2 µM [inhibitor, partial curve] | 
14 | O=C1CCC/C(=N\NC(=O)NC2CCCCC2)C1 | inconclusive: 50.1 µM [inhibitor, single point] | 
15 | COc1cccc(/C=N/c2oc(-c3ccccc3)cc2C#N)c1O | active: 28 µM | 
16 | O=C(O)C1C2C=CC(C2)C1C(=O)N1CCc2ccccc21 (stereo not given) | inconclusive: 39.8 µM [inhibitor, single point] | 
17 | C/C(=N\Nc1cccc2cccnc12)c1ccccn1 | inconclusive: 7.08 µM [inhibitor, full curve] | 
18 | CCOc1c(Nc2ccccc2O)c(=O)c1=O | inconclusive: 22.4 µM [inhibitor, partial curve] | 
19 | COc1ccc(NC2CC(=O)N(c3cccc(C)c3)C2=O)cc1 (stereo not given) | inconclusive: 35.5 µM [inhibitor, single point] | 
20 | CCOc1ccc(-c2[nH]nc3c2C(c2ccc(O)cc2)C(C#N)=C(N)O3)cc1 (stereo not given) | inconclusive: 28 µM [inhibitor, single point] | 
